# From article PMC12136788
# Some of the results follow.
# B1: chr4:87458373:87458474:+|3pUTR|ENSG00000170502|unk|total|mutant (ssRNA)
# RNA: GGGAGUUCUACAGUCCGACGAUCUCCCUCCCGCUCCCCAUCUUCUGAGGCCUGAAGGAUGUUCCUGCCACAUCAAACUCCUUCCGGCAGAGUACCGCCACUGGAUGUACCGUUUAAUGUUUCAUCUGAUUUUUCUUUAAAUUACAACAGAGGAUUGAGCAUCA
# B2: chr5:38883864:38883977:+|CDS|ENSG00000145623|unk|total|mutant (ssRNA)
# RNA: GGGAGUUCUACAGUCCGACGAUCGUUUUCCCUAAAGAUAAGCUGGUGGAAGAAGGCACCAAUGUUACCAUUUGUUACGUUUCCCGGAACAUUCAAAAUAAUGUAUCCUGUUAUUUGGAAGGGAAACAGAUUCAUGGAGAACAACAACAGAGGAUUGAGCAUCA
# B3: chr11:57661263:57661364:+|CDS|ENSG00000172409|unk|FALSE|unique (ssRNA)
# RNA: GGGAGUUCUACAGUCCGACGAUCCCACCUACUGAGUGUUAGCACUGCCGAGGGUACAGAGGAGAACCUGUCCGAGACAAGUGUAGCUGGCUUCAUUGUGGUGACCAGUGUGGACCUGGAGCAUCAGGUGUUUACUGUUCUGUCCAACAGAGGAUUGAGCAUCA
# B4: chr19:36514967:36515079:-|CDS|ENSG00000254004|unk|FALSE|unique (ssRNA)
# RNA: GGGAGUUCUACAGUCCGACGAUCCAUGAAUGCACUGAAUGUGGUAAAGUGUGCUCUCGAGUCUCAUCUCUUACUCUACACCUUAGAAGUCACACAGGAAAGAAGGCAUAUAAAUGUAAUAAAUGUGGAAAAGCCUUCAGCCAGCAACAGAGGAUUGAGCAUCA
# B5: ENSG00000107863:be:win_2201|CDS|ENSG00000107863|bound_else_gene|NA|bound_elsewhere_windowed (ssRNA)
# RNA: GGGAGUUCUACAGUCCGACGAUCCUGUCAUCCUAAGGGAAAAACCUCCAUCUGGACGCCAGACACCGCAGCCUUUAAGGCAUCAGUCUUACAUCUUGGCAGUAAAUGACCAGGAGACCGGGUCAGACACUACCUGCUGGCUGCCAACAGAGGAUUGAGCAUCA
# B6: chr17:3714672:3714773:-|3pUTR|ENSG00000083457|msi1_unk|FALSE|overlapping (ssRNA)
# RNA: GGGAGUUCUACAGUCCGACGAUCUUUGCAUUACUUUUUCCUUCAGGAUGAUCUAGAGCAGCAUGGAGCUGUUGGUAGAAUAUUAGUUUUUAACCAUACAUUGUCCCAAAAGUGUCUGUGCAUUGUGCAAAAAGUAAACUUAGGCAACAGAGGAUUGAGCAUCA
# B7: ENSG00000107863:be:win_6551|3pUTR|ENSG00000107863|bound_else_gene|NA|bound_elsewhere_windowed (ssRNA)
# RNA: GGGAGUUCUACAGUCCGACGAUCUGGAUGGAACUGGCUUCUUUAUCGAGAAGAAUAUAAUUCUGCAUGAGGACUUAAUGAAUCCAAACCUGUGUCAUGCCUGUGUGCAUACCCAAUUAAACACUGGAAAUAAAAAUUGUUUUGCAACAGAGGAUUGAGCAUCA
# B8: chr1:153626309:153626462:-|CDS|ENSG00000189171|unk|total|mutant (ssRNA)
# RNA: GGGAGUUCUACAGUCCGACGAUCUCCAUUGAGACCGUGGUCACCACCUUCUUCACCUUUGCAAGGCAGGAGGGCCGGAAGGACCGCCUCAGCGUCAACGAGUUCAAAGAGCUGGUUACCCAGCAGUUGCCCCAUCUGCUCAAGCAACAGAGGAUUGAGCAUCA
# B9: chr6:142075650:142076049:-|CDS|ENSG00000135577|control|control|control (ssRNA)
# RNA: GGGAGUUCUACAGUCCGACGAUCGUAUCGGUCUUUCAACUAUAAUGAGAUUGAUCCAUCUCUAGGCCACAUGAUUGUCACCUUAGUUGCCCGGGUUCUCAGUUUUGGCAAUUCUUGUGUCAACCCAUUUGCUCUUUACCUACUCAACAGAGGAUUGAGCAUCA
# B10: chr17:28327902:28328001:+|3pUTR|ENSG00000109084|msi1_unk|total|mutant (ssRNA)
# RNA: GGGAGUUCUACAGUCCGACGAUCUCCCUGUAUCUGAAGUCCCGCAUCUCAAGGCUGAUCUGGAAGUGUGCCCGUAUGCUCCCCCGUGGAUAACUUAAUCUUUUAAUACAGUUCCGUCAUUCCCAUCUUGUUUUCAGAAGAGAACAACAGAGGAUUGAGCAUCA
# B11: chr2:130346496:130346597:+|3pUTR|ENSG00000136718|unk|total|mutant (ssRNA)
# RNA: GGGAGUUCUACAGUCCGACGAUCACUCAGUCAGGACAUGGACUUGGAACUCAGGAUGGGGCUGUCACCGACAGACCCACCAGCCGGAACUGUCACAGAAUGGCCUGCUGAACUGGGAUGUGGAACUGUGGCGGGUGGAGAGGUCAACAGAGGAUUGAGCAUCA
# B12: chr2:219567793:219567894:-|CDS|ENSG00000124006|msi1|FALSE|unique (ssRNA)
# RNA: GGGAGUUCUACAGUCCGACGAUCCCUGCCCCGGAAGCUCGACGUCCUGGAAGGAGAGAAUGCUGUGCUGCUAGUGGAAACUCUAGAGGCCGGGGUCGAGGGACGCUGGAGCCGUGAUGGGGAGGAGCUGCCGGUCAUCUGCCACAACAGAGGAUUGAGCAUCA
# B13: chr17:41691520:41691533:+|3pUTR|ENSG00000173812|msi1_unk|total|mutant (ssRNA)
# RNA: GGGAGUUCUACAGUCCGACGAUCGGAACAAAUCUCAAACUGAUCCAUCAGUCAUGCCGCCCGCUGCCGAGCUUGCAACUUAACCGCAGCAGCUGCCCAAUGCCAUGUGAAGUAACAAACUGGUUUUUGGUUUUUUUUUCCCCUCAACAGAGGAUUGAGCAUCA
# B14: chr8:103427116:103427218:+|CDS|ENSG00000164934|unk|total|mutant (ssRNA)
# RNA: GGGAGUUCUACAGUCCGACGAUCGUAUACUGGGAUUGAUCAUCACUGGAAAGAAGCUGUUUUUGCCACAUGUGGACAGCAAGCCGACAUUUGGGAUGAACAAAGAACUAAUCCUAUAUGUUCAAUGACCUGGGGAUUUGACAGCAACAGAGGAUUGAGCAUCA
# B15: chr11:102396659:102396760:-|3pUTR|ENSG00000152558|msi1_unk|FALSE|overlapping (ssRNA)
# RNA: GGGAGUUCUACAGUCCGACGAUCCUUUUUCUCUGUAUGUAAGUAGUAUAAUUUGUUACUUUCAAAUACCCGUACUUUGAAUGUAGGUUUUUUUGUUGUUGUUAUCUAUAAAAAUUGAGGGAAAUGGUUAUGCAAAAAAAUAUUCAACAGAGGAUUGAGCAUCA
# B16: ENSG00000198589:be:win_7901|CDS|ENSG00000198589|bound_else_gene|NA|bound_elsewhere_windowed (ssRNA)
# RNA: GGGAGUUCUACAGUCCGACGAUCCUCGUUCUGAGUCAUAUAUUGGGGGAAAUUGCUACAUUCUCUCAGGGUCACGUGAUGCAACUCUUUUGCUGUGGUAUUGGAAUGGAAAAUGCAGUGGGAUUGGAGAUAACCCAGGCAGUGCAACAGAGGAUUGAGCAUCA
# B17: chr16:30603633:30603734:-|3pUTR|ENSG00000156853|unk|FALSE|unique (ssRNA)
# RNA: GGGAGUUCUACAGUCCGACGAUCGUUAAGUACCACAUUCUCCUCUAAACCUUGCCUACGACAUGUUUAAUACUUCAUCUACAUAGCAGCCCUUCAGAUAAUCACAACCACUUUGCCCCCAAGUUUUCAGGUUAAGUAGCAUGACAACAGAGGAUUGAGCAUCA
# B18: chr1:155884367:155884468:+|3pUTR|ENSG00000132718|msi1|total|mutant (ssRNA)
# RNA: GGGAGUUCUACAGUCCGACGAUCUGGGUCUACUGAGCAGUGGGUGCUGAGGUGACAGGGGAGGAACCAGUUGUUCUGCCGCCCCGGAACUGCCUCAGUGUCUUUGCCAGAAAAAGGCAAAGAGGCGGACAGUGCAGGGCUCCUCAACAGAGGAUUGAGCAUCA
# B19: chr3:44446857:44446958:-|CDS|ENSG00000185219|msi1|total|mutant (ssRNA)
# RNA: GGGAGUUCUACAGUCCGACGAUCGGGAGACAUACCCUUUCCAGUCACCAGAGGAAACACACCAGAGCAGCACAGGCUGAACGCCGCCCGCCUGCACGGUCUUCCUCUCAGGACACAAAGUUGAGAUUACAGAAGCUAAAACCACAACAGAGGAUUGAGCAUCA
# B20: chrX:46853785:46853899:+|CDS|ENSG00000102218|unk|FALSE|unique (ssRNA)
# RNA: GGGAGUUCUACAGUCCGACGAUCCAUCAUUGAGUCUUCCUCAAAUAUCAAAUUUGGAUGUUUUCAAUGGUACUAUCCUGAAUUAGCUUUCCAGUUCAAAGAUGCAGGGCUAAGUAUCUUCAACAAUACAUGGAGUAACAUUCACAACAGAGGAUUGAGCAUCA
# B21: chr22:37084134:37084404:-|CDS|ENSG00000187045|control|control|control (ssRNA)
# RNA: GGGAGUUCUACAGUCCGACGAUCCUUCCUCUCCUCCCUCUGGCUUCCUUUCCUCCCUCCCCCUCCCUCUCUUCCCUCCUCAAUAGUGACCCCCUCAUUGGAAGCCCAAGUCCCCAAUCUCAGAGGGGCAGCAAGGGGAGCGAGCAACAGAGGAUUGAGCAUCA
# B22: chr11:10770493:10770605:+|CDS|ENSG00000198730|unk|total|mutant (ssRNA)
# RNA: GGGAGUUCUACAGUCCGACGAUCACAUGUGGCACCCAGUGAUACAGUUCUUAUGUUUAAUGUGGCCUUGGUCCUGCAAAGAUCCGCUACCUCUGUCCUGAAAGAUGAAAAAAGUAAUCUGAAGGAAGUACUUAAUGCUGUGAACAACAGAGGAUUGAGCAUCA
# Target: MSI1 full-length (mouse, UniProt Q61474 1-362)
# Experiment: nsRBNS (natural sequence RNA bind-n-seq); RBNS binding buffer (assumed for nsRBNS): 25 mM Tris pH 7.5, 150 mM KCl, 3 mM MgCl2, 0.01% Triton X-100, 500 ug/ml BSA, 20 U/ml SUPERase-In, 4 C; UNK is unkempt and MSI1 is Musashi-1; names of the RNAs are library labels; protein concentration not given here; high values mean tight binding
# UniProt Q61474, sequence (Q61474 whole entry): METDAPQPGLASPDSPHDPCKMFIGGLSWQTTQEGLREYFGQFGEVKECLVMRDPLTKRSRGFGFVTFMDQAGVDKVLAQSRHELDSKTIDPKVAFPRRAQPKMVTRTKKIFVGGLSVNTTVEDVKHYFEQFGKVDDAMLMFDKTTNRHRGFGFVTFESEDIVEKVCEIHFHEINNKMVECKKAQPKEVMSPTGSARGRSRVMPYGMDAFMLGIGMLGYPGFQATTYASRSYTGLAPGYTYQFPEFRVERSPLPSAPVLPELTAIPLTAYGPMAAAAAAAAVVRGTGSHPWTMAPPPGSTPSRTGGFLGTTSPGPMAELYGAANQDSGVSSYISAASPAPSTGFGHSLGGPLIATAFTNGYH
row,Binder,binding signal [enrichment R]
1,B1,0.716
2,B2,0.268
3,B3,0.429
4,B4,0.484
5,B5,0.283
6,B6,2.92
7,B7,0.237
8,B8,0.326
9,B9,0.344
10,B10,0.723
11,B11,0.62
12,B12,0.382
13,B13,0.422
14,B14,0.362
15,B15,2.82
16,B16,0.503
17,B17,2.37
18,B18,0.357
19,B19,0.417
20,B20,0.338
21,B21,1.16
22,B22,0.663
